Measured values: PMC11997893 (ACS Pharmacology & Translational Science, 2025)
Entries after “also recorded” stand apart in the source; their conditions may differ. One block for each compound: values may come before it. Non-standard residues stand in square brackets, D forms with d. Residues, ends and D or L forms follow the SMILES beside them. *: point of attachment. X1 = CN(C)c1ccc2c(c1)Oc1cc(N(C)C)ccc1C21OC(=O)c2ccc(C(=O)*)cc21; Ahx = NCCCCCC(=O)O

Tests used:
Calu-3 cells = assay: Permeability assay on differentiated Calu-3 cells; format: in vitro ADME, human; conditions: Calu-3 differentiated at ALI, 12-well Thincert 0.4 μm, apical to basolateral, 31.6 μM in DMEM/F-12 phenol red-free + 0.05% casein (∼1% DMSO), over 24 h (samples 0, 6, 24 h), fluorescence read-out, TEER ≥ 300 Ω cm^2; mean ± SEM, n ≥ 2
Method: After 3 days under a humidified atmosphere, the level of the medium was lowered to culture cells on ALI, and the medium was changed every 2-3 days. Accordingly, transepithelial electrical resistance (TEER) was measured with am EVOM2 equipped with an STX3 electrode (World Precision Instruments, LLC, Hertfordshire, U.K.), and the baseline was corrected using empty inserts. […] Apparent permeability (P app) was measured on differentiated Calu-3 cells seeded on translucent 12-well […] inserts. Directly before and after the permeability assay, TEER measurements were performed, and data was excluded in the case of a drop of TEER. […] Both compartments were washed twice with assay buffer, which consists of DMEM/F-12 and Phenol Red-free (Gibco) supplemented with 0.05% (m/v) Casein (Sigma-Aldrich), and cells were adjusted in this buffer for 30 min under a humidified atmosphere. […] Linear regression of concentration-fluorescence signals was performed using Prism to calculate the concentration of samples. Finally, the apparent permeability was calculated according to the following equation: Papp=Δ[…] app is the apparent permeability [cm/s],

hY1R = molecular target: T1, hY1R (Homo sapiens, UniProt P25929); assay: IP1 accumulation assay, Y1R; format: cell-based
T1 construct: expressed in transfected cells
T1 sequence (P25929 1-384): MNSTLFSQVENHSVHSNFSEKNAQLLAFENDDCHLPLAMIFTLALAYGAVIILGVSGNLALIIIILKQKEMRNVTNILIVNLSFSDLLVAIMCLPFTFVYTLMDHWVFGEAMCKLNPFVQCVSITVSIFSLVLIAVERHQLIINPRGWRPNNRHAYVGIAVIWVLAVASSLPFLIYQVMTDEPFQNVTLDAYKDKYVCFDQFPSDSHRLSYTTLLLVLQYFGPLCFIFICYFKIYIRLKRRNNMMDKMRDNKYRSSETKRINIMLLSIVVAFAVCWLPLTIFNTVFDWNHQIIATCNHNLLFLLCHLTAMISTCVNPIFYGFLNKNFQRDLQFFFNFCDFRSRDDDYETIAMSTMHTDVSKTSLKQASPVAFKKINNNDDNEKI

hY2R = molecular target: T2, hY2R (Homo sapiens, UniProt P49146); assay: IP1 accumulation assay, Y2R; format: cell-based; conditions: COS-7 hY2R + chimeric G protein, n ≥ 2
T2 construct: expressed in transfected cells
T2 sequence (P49146 1-381): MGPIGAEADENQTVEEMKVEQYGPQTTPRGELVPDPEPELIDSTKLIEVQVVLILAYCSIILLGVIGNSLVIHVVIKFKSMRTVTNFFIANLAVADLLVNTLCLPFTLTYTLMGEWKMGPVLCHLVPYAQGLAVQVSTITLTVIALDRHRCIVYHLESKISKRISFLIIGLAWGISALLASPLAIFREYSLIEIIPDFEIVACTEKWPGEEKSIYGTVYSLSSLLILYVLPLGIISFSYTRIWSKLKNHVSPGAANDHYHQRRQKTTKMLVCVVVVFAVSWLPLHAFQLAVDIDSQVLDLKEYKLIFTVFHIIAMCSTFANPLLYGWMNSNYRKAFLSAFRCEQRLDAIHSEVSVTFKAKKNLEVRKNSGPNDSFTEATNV

[1] = Peptide stability in the Calu-3 supernatant; format: in vitro ADME, human; conditions: RP-HPLC fluorescence
[2] = tested on: Calu-3 cells; read-out COS-7_hY2R_GαΔ6qi4myr; assay: Combined Calu-3 permeability and IP1 receptor activity assay, Y2R; format: in vitro ADME, human; conditions: Calu-3 ALI; for calculated concentration of bioactive peptide in the basolateral chamber / calculated concentration in the Calu-3 permeability assay log(sample [M]): read-out IP1/HTRF on hY2R, n ≥ 2; for calculated concentration in the Calu-3 permeability assay log(sample [M]): ± SEM
[3] = Calu-3 supernatant (peptide in assay buffer in the apical chamber on differentiated Calu-3 cells); conditions: human, up to 48 h

Compound: O=C([O-])c1ccccc1-c1c2ccc(=O)cc-2oc2cc([O-])ccc12.[Na+].[Na+] [Fl, fluorescein sodium, reference compound]
P app (apparent permeability) (Calu-3 cells): 115 ± 11 × 10^–9 cm/s

EC50 (hY1R; IP1 accumulation (HTRF), COS-7 stably transfected with hY1R and chimeric G protein GαΔ6qi4myr, 45 min stimulation, n ≥ 2): > 100 nM
Y1R activation (in words) (hY1R; IP1 accumulation, hY1R): no significant activity
EC50 (hY2R; IP1 accumulation (HTRF), read-out: Y2R pEC50 ± SEM (converted)): 2.57 nM
Y2R E max ± SEM (hY2R; IP1 accumulation, signals normalized to the control peptide): 98 ± 2
P app (apparent permeability) (Calu-3 cells): 88 ± 4 × 10^–9 cm/s
calculated concentration of bioactive peptide in the basolateral chamber ([2]; 10 μM apical, 2 h): <0.21 nM
calculated concentration in the Calu-3 permeability assay log(sample [M]) ([2]; 10 μM apical, 2 h): <−9.67 log(c [M])
calculated concentration of bioactive peptide in the basolateral chamber ([2]; 10 μM apical, 4 h): <0.21 nM
calculated concentration in the Calu-3 permeability assay log(sample [M]) ([2]; 10 μM apical, 4 h): <−9.67 log(c [M])
calculated concentration of bioactive peptide in the basolateral chamber ([2]; 31.6 μM apical, 2 h): <0.21 nM
calculated concentration in the Calu-3 permeability assay log(sample [M]) ([2]; 31.6 μM apical, 2 h): <−9.67 log(c [M])
calculated concentration of bioactive peptide in the basolateral chamber ([2]; 31.6 μM apical, 4 h): <0.21 nM
calculated concentration in the Calu-3 permeability assay log(sample [M]) ([2]; 31.6 μM apical, 4 h): <−9.67 log(c [M])
Compound: CC[C@H](C)[C@H](NC(=O)[C@H](Cc1ccc(O)cc1)NC(=O)[C@H](Cc1c[nH]cn1)NC(=O)[C@H](CCCNC(=N)N)NC(=O)CCCCCNC(=O)[C@H](CCCCNC(=O)c1ccc2c(c1)C1(OC2=O)c2ccc(N(C)C)cc2Oc2cc(N(C)C)ccc21)NC(=O)[C@H](CO)NC(=O)[C@@H]1CCCN1C(=O)[C@@H](N)Cc1ccc(O)cc1)C(=O)N[C@@H](CC(N)=O)C(=O)N[C@@H](CC(C)C)C(=O)N[C@H](C(=O)N[C@H](C(=O)N[C@@H](CCCNC(=N)N)C(=O)N[C@@H](CCC(N)=O)C(=O)N[C@@H](CCCNC(=N)N)C(=O)N[C@@H](Cc1ccc(O)cc1)C(N)=O)[C@@H](C)O)[C@@H](C)CC [Peptide 4, [K^4(Tam), Ahx^5–24]-NPY] (H-YPSK(X1)[Ahx]RHYINLITRQRY-NH2)
intact compound detectable 6 h after stimulation [1]: almost no intact compound 4 is detectable
active compound penetrating the Calu-3 cell layer (in words) ([2]; 10 and 31.6 μM apical, 2 and 4 h, read-out hY2R): no active compound measurably penetrated the Calu-3 cell layer

Compound: [K^4(Tam), Ahx^5–24]-NPY
fragment found [3]: YPSK(Tam)-Ahx-R, major, 24 h; also recorded: PSK(Tam)-Ahx, major, 24 h

not cleaved [3]: less than 10% degradation over 48 h
Compound: [K^4(Tam), K^7 (γGlu-C18)]-PYY3–36

not cleaved [3]: less than 10% degradation over 48 h
Compound: [K^4(Tam), K^7 (γGlu-Odd)]-PYY3–36

not cleaved [3]: less than 10% degradation over 48 h
Compound: [K^4(Tam), K^7(γGlu-Pam)]-PYY3–36

fragment found [3]: fragment 3–34, first_seen, 48 h
Compound: [K^4(Tam)]-PYY3–36
